This is an account of results in the supplement of paper PMC7125110.

± gives the standard error. This sample is rich in variants without activity. A value given as a limit tells only on which side of the number the result lay.

The chains are these.
B1: glmS ribozyme (parent)
chain: AUAAAAGCGCCAGAACUACAGAAAUGUAGUUGACGAGGAGGAGGUUUAUCGAAUUUUCGGCGGAUGCCUCCAAA

What all share (conditions): with glucosamine-6-phosphate
Data set [1] covers variants of B1. In words: self-cleavage kobs at 640 uM GlcN6P; higher = faster cleavage; RNA array. In short, it runs like this:
(§1)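 Using a hybridised Cy3 probe at 37 °C, barcoded ribozyme variants transcribed in situ by E. coli RNA polymerase on sequenced MiSeq chips were monitored across tiles imaged over ~14 h. The flow contained glucosamine-6-phosphate from 40 μM to 10 mM in HEPES/KCl/Mg(OAc)2 buffer. Signals were normalised to baseline and to non-cleaving reference variants before per-tile medians were fit to one- or two-exponential decays to yield kobs. Weighted Michaelis–Menten fits across concentrations gave kcat and KM.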

Variants of B1 are the subject of data set [2]. Kind of data set: self-cleavage kobs at 2500 uM GlcN6P; higher = faster cleavage; RNA array. In outline: as §1
In data set [3] the parent is B1. In words: self-cleavage kobs at 160 uM GlcN6P; higher = faster cleavage; RNA array. In short, it runs like this:
as §1

The variants in data set [4] derive from B1. Kind of data set: self-cleavage kobs at 10000 uM GlcN6P; higher = faster cleavage; RNA array. In outline:
as §1

As for C16A U30C G40U G43C U49C, the “self-cleavage kobs at 640 uM GlcN6P” value with glucosamine-6-phosphate [1] was below 1e-05 s⁻¹. For the same variant, the “self-cleavage kobs at 2500 uM GlcN6P” value with glucosamine-6-phosphate [2] was below 1e-05 s⁻¹.
On to C16G G35U U45G, for which the “self-cleavage kobs at 640 uM GlcN6P” value with glucosamine-6-phosphate [1] was below 1e-05 s⁻¹. Moreover, the “self-cleavage kobs at 160 uM GlcN6P” value with glucosamine-6-phosphate [3] is below 1e-05 s⁻¹. The “self-cleavage kobs at 2500 uM GlcN6P” value in the data set with glucosamine-6-phosphate [2] is below 1e-05 s⁻¹.
In the case of U30C G35U, the “self-cleavage kobs at 640 uM GlcN6P” value with glucosamine-6-phosphate [1] is below 1e-05 s⁻¹. Moreover, the “self-cleavage kobs at 2500 uM GlcN6P” value with glucosamine-6-phosphate [2] was below 1e-05 s⁻¹. For the same variant, in the data set with glucosamine-6-phosphate [4], the “self-cleavage kobs at 10000 uM GlcN6P” value is below 1e-05 s⁻¹.
For the variant C16U A53G C70A, in the data set with glucosamine-6-phosphate [1], the “self-cleavage kobs at 640 uM GlcN6P” value came out at 0.000224 ± 3.5e-05 s⁻¹. Also, the “self-cleavage kobs at 2500 uM GlcN6P” value with glucosamine-6-phosphate [2] came to 0.000232 ± 6.5e-05 s⁻¹.
Consider C16A G51U C58A, for which the “self-cleavage kobs at 640 uM GlcN6P” value with glucosamine-6-phosphate [1] was below 1e-05 s⁻¹.
Consider A15C G29U A39U G59U C70U, for which the “self-cleavage kobs at 640 uM GlcN6P” value with glucosamine-6-phosphate [1] was below 1e-05 s⁻¹. In addition, in the data set with glucosamine-6-phosphate [2], the “self-cleavage kobs at 2500 uM GlcN6P” value is below 1e-05 s⁻¹.
U30C G38A: the “self-cleavage kobs at 640 uM GlcN6P” value with glucosamine-6-phosphate [1] was below 1e-05 s⁻¹. In the data set with glucosamine-6-phosphate [4], the “self-cleavage kobs at 10000 uM GlcN6P” value is below 1e-05 s⁻¹.
With A15U G38C G43C G51U, in the data set with glucosamine-6-phosphate [1], the “self-cleavage kobs at 640 uM GlcN6P” value is below 1e-05 s⁻¹. Besides, the “self-cleavage kobs at 160 uM GlcN6P” value with glucosamine-6-phosphate [3] is below 1e-05 s⁻¹. Also, the “self-cleavage kobs at 10000 uM GlcN6P” value in the data set with glucosamine-6-phosphate [4] is below 1e-05 s⁻¹.
Consider G29C G38C G41C, for which the “self-cleavage kobs at 640 uM GlcN6P” value in the data set with glucosamine-6-phosphate [1] is below 1e-05 s⁻¹.
With U30A G38U U65G C68G, the “self-cleavage kobs at 640 uM GlcN6P” value in the data set with glucosamine-6-phosphate [1] amounted to 0.000139 ± 4.3e-05 s⁻¹. In addition, the “self-cleavage kobs at 160 uM GlcN6P” value with glucosamine-6-phosphate [3] is 0.000204 ± 4.9e-05 s⁻¹.
G29C U30G C70U: the “self-cleavage kobs at 640 uM GlcN6P” value in the data set with glucosamine-6-phosphate [1] stood at 0.000861 ± 0.00017 s⁻¹.
Same read-out and setting: under C16G G38C U56C stands below 1e-05 s⁻¹; under A14U U45A C61U C70G, below 1e-05 s⁻¹.
For A15C A33G U45A G63C, the “self-cleavage kobs at 640 uM GlcN6P” value with glucosamine-6-phosphate [1] was below 1e-05 s⁻¹.
In the case of U30C A33C G43U G51A C58A, the “self-cleavage kobs at 640 uM GlcN6P” value with glucosamine-6-phosphate [1] is below 1e-05 s⁻¹. In addition, the “self-cleavage kobs at 2500 uM GlcN6P” value in the data set with glucosamine-6-phosphate [2] was below 1e-05 s⁻¹.
With A15G A53U G60U, the “self-cleavage kobs at 640 uM GlcN6P” value with glucosamine-6-phosphate [1] was below 1e-05 s⁻¹. In addition, in the data set with glucosamine-6-phosphate [3], the “self-cleavage kobs at 160 uM GlcN6P” value was below 1e-05 s⁻¹. Also, the “self-cleavage kobs at 2500 uM GlcN6P” value with glucosamine-6-phosphate [2] is below 1e-05 s⁻¹.
Consider A15C U56C, for which the “self-cleavage kobs at 640 uM GlcN6P” value in the data set with glucosamine-6-phosphate [1] was found to be 0.000202 ± 3.2e-05 s⁻¹. For the same variant, the “self-cleavage kobs at 160 uM GlcN6P” value with glucosamine-6-phosphate [3] was 8.66e-05 ± 1.7e-05 s⁻¹. Further, the “self-cleavage kobs at 2500 uM GlcN6P” value with glucosamine-6-phosphate [2] was determined as 0.000708 ± 9.2e-05 s⁻¹. In addition, the “self-cleavage kobs at 10000 uM GlcN6P” value with glucosamine-6-phosphate [4] came to 0.000914 ± 9.9e-05 s⁻¹.
Regarding G21U G26U U65G G66U U69G, in the data set with glucosamine-6-phosphate [1], the “self-cleavage kobs at 640 uM GlcN6P” value was 0.000207 ± 8.9e-05 s⁻¹.
Take A15U G32C: the “self-cleavage kobs at 640 uM GlcN6P” value in the data set with glucosamine-6-phosphate [1] was determined as 3.14e-05 ± 7.2e-06 s⁻¹. Further, the “self-cleavage kobs at 2500 uM GlcN6P” value in the data set with glucosamine-6-phosphate [2] is 6.49e-05 ± 8.6e-06 s⁻¹. Besides, in the data set with glucosamine-6-phosphate [4], the “self-cleavage kobs at 10000 uM GlcN6P” value was 0.000112 ± 9.6e-06 s⁻¹.
Regarding C16G G40A, in the data set with glucosamine-6-phosphate [1], the “self-cleavage kobs at 640 uM GlcN6P” value turned out to be 0.000114 ± 2.6e-05 s⁻¹. For the same variant, the “self-cleavage kobs at 2500 uM GlcN6P” value in the data set with glucosamine-6-phosphate [2] was found to be 0.000473 ± 0.00011 s⁻¹. In the data set with glucosamine-6-phosphate [4], the “self-cleavage kobs at 10000 uM GlcN6P” value is 0.00027 ± 5.7e-05 s⁻¹.
For the variant G29U A36G A42C G44A G60C, in the data set with glucosamine-6-phosphate [1], the “self-cleavage kobs at 640 uM GlcN6P” value is below 1e-05 s⁻¹. Also, in the data set with glucosamine-6-phosphate [3], the “self-cleavage kobs at 160 uM GlcN6P” value was below 1e-05 s⁻¹. In the data set with glucosamine-6-phosphate [2], the “self-cleavage kobs at 2500 uM GlcN6P” value is below 1e-05 s⁻¹.
For C16U A36U G41U, the “self-cleavage kobs at 640 uM GlcN6P” value in the data set with glucosamine-6-phosphate [1] is below 1e-05 s⁻¹. Also, in the data set with glucosamine-6-phosphate [3], the “self-cleavage kobs at 160 uM GlcN6P” value was below 1e-05 s⁻¹. Moreover, the “self-cleavage kobs at 2500 uM GlcN6P” value with glucosamine-6-phosphate [2] was below 1e-05 s⁻¹.
On to U30C U31A G41A C50U, for which the “self-cleavage kobs at 640 uM GlcN6P” value in the data set with glucosamine-6-phosphate [1] is below 1e-05 s⁻¹.
Regarding C16A U31C A33G C34A A52U C68U, in the data set with glucosamine-6-phosphate [1], the “self-cleavage kobs at 640 uM GlcN6P” value is below 1e-05 s⁻¹.
Consider C16A U55C C61G C67G U69G, for which, in the data set with glucosamine-6-phosphate [1], the “self-cleavage kobs at 640 uM GlcN6P” value is below 1e-05 s⁻¹.
In the case of A15G G35C A42U C50G C68A C71U, the “self-cleavage kobs at 640 uM GlcN6P” value in the data set with glucosamine-6-phosphate [1] was below 1e-05 s⁻¹. Also, the “self-cleavage kobs at 2500 uM GlcN6P” value with glucosamine-6-phosphate [2] was below 1e-05 s⁻¹.
In the case of G29C U65G, in the data set with glucosamine-6-phosphate [1], the “self-cleavage kobs at 640 uM GlcN6P” value was determined as 0.000115 ± 2.7e-05 s⁻¹. In addition, in the data set with glucosamine-6-phosphate [2], the “self-cleavage kobs at 2500 uM GlcN6P” value amounted to 0.000279 ± 7.3e-05 s⁻¹. For the same variant, the “self-cleavage kobs at 10000 uM GlcN6P” value with glucosamine-6-phosphate [4] was found to be 0.000591 ± 0.00015 s⁻¹.
Regarding G29C G44A G60A A64G, the “self-cleavage kobs at 640 uM GlcN6P” value in the data set with glucosamine-6-phosphate [1] was below 1e-05 s⁻¹. Moreover, the “self-cleavage kobs at 160 uM GlcN6P” value with glucosamine-6-phosphate [3] was below 1e-05 s⁻¹.
